Measured values published in article PMC6919601, “Identification of Plasmodium dipeptidyl aminopeptidase allosteric inhibitors by high throughput screening” (PLoS ONE, 2019).
Out of some 110,000 compounds screened, about 230 (0.21%) showed an effect of 50% or more. Some of the results follow.

molecular target: DPAP1 (Plasmodium falciparum, UniProt Q8IIJ9); experiment: primary screen, percent inhibition; read by cleavage of a fluorogenic dipeptide substrate; higher = more effect of the substance; set-up: species or system P. falciparum D10 trophozoite lysates; single well
Sequence (Q8IIJ9 whole entry, looked up): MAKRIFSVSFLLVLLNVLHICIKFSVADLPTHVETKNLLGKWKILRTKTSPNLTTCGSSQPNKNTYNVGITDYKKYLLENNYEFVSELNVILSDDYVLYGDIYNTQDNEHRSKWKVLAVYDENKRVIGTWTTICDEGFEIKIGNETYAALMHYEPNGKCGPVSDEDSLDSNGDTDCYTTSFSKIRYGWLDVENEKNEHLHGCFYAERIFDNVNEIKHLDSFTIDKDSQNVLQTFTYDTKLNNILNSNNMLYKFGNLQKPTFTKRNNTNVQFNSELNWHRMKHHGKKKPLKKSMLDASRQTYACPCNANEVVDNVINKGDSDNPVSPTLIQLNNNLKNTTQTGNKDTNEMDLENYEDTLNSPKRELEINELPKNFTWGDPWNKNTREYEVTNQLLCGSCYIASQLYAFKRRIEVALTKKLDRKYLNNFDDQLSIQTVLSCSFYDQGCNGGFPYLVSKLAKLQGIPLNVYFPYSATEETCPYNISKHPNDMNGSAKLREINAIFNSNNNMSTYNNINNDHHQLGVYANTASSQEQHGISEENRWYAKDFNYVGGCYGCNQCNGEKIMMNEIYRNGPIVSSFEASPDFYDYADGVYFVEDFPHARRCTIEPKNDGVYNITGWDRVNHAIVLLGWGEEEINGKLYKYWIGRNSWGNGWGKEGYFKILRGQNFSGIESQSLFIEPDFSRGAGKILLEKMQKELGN
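Further: 30 min substrate incubation versus DMSO and 10 µM JCP410 controls.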

Compound	% Inhibition @ 10 uM
Cc1cccc(-c2nnc(-c3ccncc3)o2)c1	1.54%
O=C(Cn1cccc1C(=O)c1ccccc1)NCc1ccc2c(c1)OCO2	-2.25%
O=[N+]([O-])c1ccc(Cn2nc(-c3ccccc3)nc2-c2ccccc2)cc1	-2.72%
Cc1ccc(S(=O)(=O)N(CCc2ccccc2)CC(=O)Nc2cccc(C)c2)cc1	1.1%
CC(CCc1ccccc1)NC(=O)Cn1ncn2c(cc3cc(F)ccc32)c1=O (stereo not drawn)	-5.32%
CCOc1ccc(C2C3=C(O)CCCC3=NC(C)=C2C(=O)Nc2ccccn2)cc1 (stereo not drawn)	-2.16%
CC1CCN(c2c(NCc3ccc(C(=O)N4CCn5c4nc4ccccc45)cc3)c(=O)c2=O)CC1	2.76%
Cc1ccccc1NC(=O)CN(C1CCCCC1)S(C)(=O)=O	-1.89%
OCCN(CCO)Cc1ccc(F)c(Br)c1	3.82%
Cc1cc2oc(C(=O)Nc3nonc3C)c(C)c2cc1Cl	3.51%
O=C(CCCn1c2ccccc2c2cnnc(O)c21)NCc1ccc2c(c1)OCO2	4.55%
CCOc1ccc2ccccc2c1CNCCSc1nnnn1C	3.27%
N=C(N)SCCCc1nc2ccccc2[nH]1	2.05%
O=C(Cn1cc2c(n1)CCCC2)NCc1cccnc1	1.8%
Cc1cc(C)c(S(=O)(=O)NCC(=O)NCc2ccco2)c(C)c1	-2.51%
CCOc1cc(C(=O)NCc2nc(-c3ccc(OC)cc3)no2)cc(OCC)c1OCC	-2.99%
CC1(C)CC(=O)C2=C(C1)NC(=O)CC2c1ccc(Cl)cc1 (stereo not drawn)	4.38%
CCCCCC(=O)Nc1cccc2cccnc12	-2.98%
Clc1ccccc1OCc1nn2cnnc2s1	3.88%
CC(C)(C)NC(=O)/C(=C/c1ccc(-c2ccc([N+](=O)[O-])cc2)o1)NC(=O)c1ccccc1	2.41%
COc1cc(CN2CCN(Cc3cccc(Cl)c3)CC2)cc2c1OCO2	3.1%

Compound	% Inhibition @ 10 uM
Cc1ccc(S(=O)(=O)NC(Cc2ccccc2)C(=O)O)cc1 (stereo not drawn)	0.035%
COc1ccc(C2=NN(C(=O)c3cc(OC)c(OC)c(OC)c3)C(c3ccc(F)cc3)C2)cc1OC (stereo not drawn)	0.131%
COc1ccc(CN2CCN(C3CC4CCC3C4)CC2)c(OC)c1 (stereo not drawn)	-2.87%
Fc1cccc(F)c1CNCC1NCCc2ccccc21 (stereo not drawn)	-6.35%
CSc1ccc(C2C3=C(O)CCCC3=NC3=C2C(=O)CCC3)cc1 (stereo not drawn)	0.673%
COc1ccc(/C=N/c2nc(-c3ccc(Cl)cc3)c(C)s2)cc1	4.97%
Cc1nc2ccccc2c2oc(C(=O)NCCc3ccc(Cl)cc3)cc12	1.62%
O=C(Nc1ccc(F)c(F)c1)c1ccc2c(c1)OCO2	-1.54%
Cn1ncc2c(NCCc3c[nH]c4ccccc34)ncnc21	-0.587%
CCCCC(=O)Nc1nn2c(C(C)C)nnc2s1	2.81%
CC1(C)Cc2c(c(N3CCOCC3)nc3sc(C(=O)c4ccccc4)c(N)c23)CO1	-12.2%
CCOC(=O)c1cc(-c2ccccc2)n(-c2ccc(C(=O)NCc3ccco3)cc2)c1C	-3.64%
COC(=O)c1ccc(CSc2nnc(CNC(=O)c3c(F)cccc3Cl)o2)o1	-1.58%
CCc1c(N2CCCCC2)nc2n(c1=O)CCS2	0.347%
Cn1c(C(=O)NCCCc2ccccc2)cc2oc3ccccc3c21	-0.281%
COc1ccc(OCC(O)Cn2c(N3CCOCC3)nc3c2c(=O)[nH]c(=O)n3C)cc1 (stereo not drawn)	3.34%
CCC(=O)c1cn(CC(=O)NCC2CCCO2)c2ccccc12 (stereo not drawn)	-3.13%
COc1cccc2cc(-c3nc4cc5ccccc5cc4[nH]3)c(=O)oc12	2.33%
O=C(O)/C(=C/c1ccccc1F)NC(=O)c1ccccc1	-2.2%
O=S(=O)(c1ccc(-c2ccc(O)nn2)o1)N1CCC2(CC1)OCCO2	-5.77%
C=CCn1c(SCCCCC)nc2c1c(=O)n(C)c(=O)n2C	-6.36%

Compound	% Inhibition @ 10 uM
O=C(Nc1cnc(O)nc1O)c1cccc(Br)c1	0.685%
N#CCc1ccc(NC(=O)c2ccc(C3SCC(=O)N3CCc3ccccc3)cc2)cc1 (stereo not drawn)	-0.884%
CCS[C@@H]1O[C@H](CO)[C@@H](OCc2ccccc2)[C@H](OCc2ccccc2)[C@H]1OCc1ccccc1	2.17%
O=C(O)c1ccccc1NS(=O)(=O)c1ccc(F)c(Cl)c1	-1.17%
Cc1cccc(NS(=O)(=O)c2ccc(NC(=O)CN(c3cccc(F)c3)S(C)(=O)=O)cc2)c1	-0.473%
COc1ccc(N(CC(=O)Nc2cc(Cl)cc(Cl)c2)S(C)(=O)=O)c(OC)c1	-2.05%
COc1cccc(S(=O)(=O)NCc2ccc(C(=O)N3CCN(Cc4ccccc4)CC3)cc2)c1	0.795%
CCCn1c2c(c(O)c(C(=O)Nc3nc(C45CC6CC(CC(C6)C4)C5)cs3)c1=O)CCCC2	2.8%
COc1ccc(C(=N)NOC(=O)c2ccc(C)c(C)c2)cc1	2.25%
O=C(C1COc2ccccc2O1)N1CCNCC1 (stereo not drawn)	-1.64%
O=C(C1CCN(S(=O)(=O)c2ccccc2)CC1)N1CCCCCC1	0.147%
Cc1ccc(C(=O)Nc2ccc(S(=O)(=O)Nc3ncccn3)cc2)o1	2.08%
O=C(Nc1ccccc1)Nc1cc(Cl)cc(Cl)c1	-0.414%
O=c1oc2ccccc2c2c1ncn2C1CCCCC1	-5.65%
Cc1ccc2onc(CNC(=O)N3CCN(C4CCCCC4)CC3)c2c1	2.99%
CCCSc1nc2c(c(=O)[nH]c(=O)n2C)n1Cc1ccc(Cl)cc1	-6.36%
O=C1C(=Cc2ccc(Br)o2)C(=O)c2ccccc21	-0.178%
Cn1c2ccccc2c2c(C(=O)NCCCN3CCc4ccccc4C3)cn(C3CCCC3)c(=O)c21	-3.39%
CC(=O)N(C)c1ccc(NC(=O)COc2ccc(Cl)cc2Cl)cc1	5.63%
CCCCN(C)C(=O)/C(=C/c1cn(CC)c2ccccc12)NC(=O)c1ccc(C)cc1	-7.27%
CC(C)Cn1cc(C(=O)NCc2ccc3c(c2)OCO3)c2c3ccccc3n(C)c2c1=O	-3.12%
